B1: GCUUACU (DNA:RNA)
RNA: GGGAGACCGGAAUUCAGAUUGUCCGCUUACUUUAAAUCCCGUCGUAGCCACCA
DNA 1: CAATCTGAATTCCGGTCTCCC
DNA 2: TGGTGGCTACGACGGGATT
B2: CAUCCAC (DNA:RNA)
RNA: B1 RNA with G25C, C26A, U28C, A29C, C30A, U31C
DNA 1: CAATCTGAATTCCGGTCTCCC
DNA 2: TGGTGGCTACGACGGGATT
B3: AAAGCGU (DNA:RNA)
RNA: B1 RNA with G25A, C26A, U27A, U28G, A29C, C30G
DNA 1: CAATCTGAATTCCGGTCTCCC
DNA 2: TGGTGGCTACGACGGGATT
B4: AGUGAGA (DNA:RNA)
RNA: B1 RNA with G25A, C26G, U28G, C30G, U31A
DNA 1: CAATCTGAATTCCGGTCTCCC
DNA 2: TGGTGGCTACGACGGGATT
B5: UUCUAGG (DNA:RNA)
RNA: B1 RNA with G25U, C26U, U27C, C30G, U31G
DNA 1: CAATCTGAATTCCGGTCTCCC
DNA 2: TGGTGGCTACGACGGGATT
B6: CUGCUGU (DNA:RNA)
RNA: B1 RNA with G25C, C26U, U27G, U28C, A29U, C30G
DNA 1: CAATCTGAATTCCGGTCTCCC
DNA 2: TGGTGGCTACGACGGGATT
B7: CAAACAA (DNA:RNA)
RNA: GGGAGACCGGAAUUCAGAUUGUCCCAAACAAUUAAAUCCCGUCGUAGCCACCA
DNA 1: CAATCTGAATTCCGGTCTCCC
DNA 2: TGGTGGCTACGACGGGATT
B8: AUCACUA (DNA:RNA)
RNA: B7 RNA with C25A, A26U, A27C, A30U
DNA 1: CAATCTGAATTCCGGTCTCCC
DNA 2: TGGTGGCTACGACGGGATT
B9: CCGGACC (DNA:RNA)
RNA: B1 RNA with G25C, U27G, U28G, U31C
DNA 1: CAATCTGAATTCCGGTCTCCC
DNA 2: TGGTGGCTACGACGGGATT
B10: ACCGAUC (DNA:RNA)
RNA: B1 RNA with G25A, U27C, U28G, C30U, U31C
DNA 1: CAATCTGAATTCCGGTCTCCC
DNA 2: TGGTGGCTACGACGGGATT
B11: AAGCGCG (DNA:RNA)
RNA: B7 RNA with C25A, A27G, A28C, C29G, A30C, A31G
DNA 1: CAATCTGAATTCCGGTCTCCC
DNA 2: TGGTGGCTACGACGGGATT
B12: CCGUGCU (DNA:RNA)
RNA: B1 RNA with G25C, U27G, A29G
DNA 1: CAATCTGAATTCCGGTCTCCC
DNA 2: TGGTGGCTACGACGGGATT
B13: AACGCGC (DNA:RNA)
RNA: B7 RNA with C25A, A27C, A28G, A30G, A31C
DNA 1: CAATCTGAATTCCGGTCTCCC
DNA 2: TGGTGGCTACGACGGGATT
B14: UCGAAUG (DNA:RNA)
RNA: B1 RNA with G25U, U27G, U28A, C30U, U31G
DNA 1: CAATCTGAATTCCGGTCTCCC
DNA 2: TGGTGGCTACGACGGGATT
B15: UGAAAAA (DNA:RNA)
RNA: B7 RNA with C25U, A26G, C29A
DNA 1: CAATCTGAATTCCGGTCTCCC
DNA 2: TGGTGGCTACGACGGGATT
B16: GCUCGCG (DNA:RNA)
RNA: B1 RNA with U28C, A29G, U31G
DNA 1: CAATCTGAATTCCGGTCTCCC
DNA 2: TGGTGGCTACGACGGGATT
B17: UAAACUG (DNA:RNA)
RNA: B7 RNA with C25U, A30U, A31G
DNA 1: CAATCTGAATTCCGGTCTCCC
DNA 2: TGGTGGCTACGACGGGATT
B18: GAGUGGU (DNA:RNA)
RNA: B1 RNA with C26A, U27G, A29G, C30G
DNA 1: CAATCTGAATTCCGGTCTCCC
DNA 2: TGGTGGCTACGACGGGATT
B19: CACCGCU (DNA:RNA)
RNA: B7 RNA with A27C, A28C, C29G, A30C, A31U
DNA 1: CAATCTGAATTCCGGTCTCCC
DNA 2: TGGTGGCTACGACGGGATT
B20: UCGGUGA (DNA:RNA)
RNA: B7 RNA with C25U, A26C, A27G, A28G, C29U, A30G
DNA 1: CAATCTGAATTCCGGTCTCCC
DNA 2: TGGTGGCTACGACGGGATT
B21: ACCGUUC (DNA:RNA)
RNA: B1 RNA with G25A, U27C, U28G, A29U, C30U, U31C
DNA 1: CAATCTGAATTCCGGTCTCCC
DNA 2: TGGTGGCTACGACGGGATT
B22: UACGACU (DNA:RNA)
RNA: B1 RNA with G25U, C26A, U27C, U28G
DNA 1: CAATCTGAATTCCGGTCTCCC
DNA 2: TGGTGGCTACGACGGGATT
B23: CCGAGAG (DNA:RNA)
RNA: B7 RNA with A26C, A27G, C29G, A31G
DNA 1: CAATCTGAATTCCGGTCTCCC
DNA 2: TGGTGGCTACGACGGGATT
B24: CUUGUGC (DNA:RNA)
RNA: B7 RNA with A26U, A27U, A28G, C29U, A30G, A31C
DNA 1: CAATCTGAATTCCGGTCTCCC
DNA 2: TGGTGGCTACGACGGGATT
B25: AGCUACG (DNA:RNA)
RNA: B1 RNA with G25A, C26G, U27C, U31G
DNA 1: CAATCTGAATTCCGGTCTCCC
DNA 2: TGGTGGCTACGACGGGATT
B26: GAUGACA (DNA:RNA)
RNA: B1 RNA with C26A, U28G, U31A
DNA 1: CAATCTGAATTCCGGTCTCCC
DNA 2: TGGTGGCTACGACGGGATT
B27: AAACGUC (DNA:RNA)
RNA: B7 RNA with C25A, A28C, C29G, A30U, A31C
DNA 1: CAATCTGAATTCCGGTCTCCC
DNA 2: TGGTGGCTACGACGGGATT
B28: AUGAAGC (DNA:RNA)
RNA: B7 RNA with C25A, A26U, A27G, C29A, A30G, A31C
DNA 1: CAATCTGAATTCCGGTCTCCC
DNA 2: TGGTGGCTACGACGGGATT
B29: UGUACUA (DNA:RNA)
RNA: B7 RNA with C25U, A26G, A27U, A30U
DNA 1: CAATCTGAATTCCGGTCTCCC
DNA 2: TGGTGGCTACGACGGGATT
B30: AGCAAGU (DNA:RNA)
RNA: B1 RNA with G25A, C26G, U27C, U28A, C30G
DNA 1: CAATCTGAATTCCGGTCTCCC
DNA 2: TGGTGGCTACGACGGGATT
B31: GCGGGUG (DNA:RNA)
RNA: B1 RNA with U27G, U28G, A29G, C30U, U31G
DNA 1: CAATCTGAATTCCGGTCTCCC
DNA 2: TGGTGGCTACGACGGGATT

Drawing on article PMC9911399, “Two distinct binding modes provide the RNA-binding protein RbFox with extraordinary sequence specificity”, this text covers binding signal for 31 molecules.

Positions count from the first letter of the chain named. This is one part of the list.

The assay deals with T1, RBFOX1 RRM (Homo sapiens, UniProt Q9NWB1 109-208).
T1 sequence: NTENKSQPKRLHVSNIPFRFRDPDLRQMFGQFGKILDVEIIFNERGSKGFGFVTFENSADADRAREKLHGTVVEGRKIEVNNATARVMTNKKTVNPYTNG
As to the kind of experiment: EMSA; HiTS-Eq, 1 nM pool, 10 min; buffer printed only for the single-RNA assays: 10 mM Tris pH 7.5, 150 mM NaCl, 3.4 mM EDTA, 0.001% NP-40, 30 C. The following applies: tags: His6 N-terminal (pET28a); label: 5' 32P. The method, boiled down:
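Purified RbFox RRM (wild type or mutant) was equilibrated for 10 min in 50 µL with 1 nM of a 5′-radiolabelled pool of RNA with 7 randomized nucleotides, its flanks annealed to DNA oligonucleotides, across increasing protein concentrations. Free RNA was separated by 8% native PAGE, excised, reverse-transcribed, PCR-barcoded and sequenced on an Illumina HiSeq 2500. Relative association constants came from read-count changes of each variant against the control reaction, normalised to the cognate motif.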
A general note: Mobility shift assays separate free from complexed probe on a gel.
With B1, the binding signal was 0.00884 KA relative to UGCAUGU.

B2: the binding signal is 0.00104 KA relative to UGCAUGU.

Consider B3, for which the binding signal was 0.00568 KA relative to UGCAUGU. For the molecule B4, the binding signal was 0.00921 KA relative to UGCAUGU. The value for B5 was 0.00585 KA relative to UGCAUGU; that for B6 was 0.0232 KA relative to UGCAUGU. For B7, the binding signal is 0.00107 KA relative to UGCAUGU. As for B8, the binding signal was 0.00157 KA relative to UGCAUGU.

With B9, the binding signal is 0.0158 KA relative to UGCAUGU. Regarding B10, the binding signal is 0.00288 KA relative to UGCAUGU. In the case of B11, the binding signal is 0.0111 KA relative to UGCAUGU.

B12: the binding signal is 0.0119 KA relative to UGCAUGU. B13: the binding signal was 0.00997 KA relative to UGCAUGU. Take B14: the binding signal is 0.0323 KA relative to UGCAUGU. The figure for B15 is 0.00801 KA relative to UGCAUGU; for B16 it is 0.0177 KA relative to UGCAUGU; for B17 it is 0.0089 KA relative to UGCAUGU.

Consider B18, for which the binding signal was 0.0185 KA relative to UGCAUGU.

As to B19, the binding signal is 0.00254 KA relative to UGCAUGU. With B20, the binding signal was 0.0136 KA relative to UGCAUGU. Regarding B21, the binding signal was 0.00437 KA relative to UGCAUGU. Take B22: the binding signal is 0.00447 KA relative to UGCAUGU. Take B23: the binding signal is 0.0109 KA relative to UGCAUGU. For B24, the binding signal was 0.0261 KA relative to UGCAUGU. The figure for B25 is 0.00807 KA relative to UGCAUGU. The figure for B26 is 0.00802 KA relative to UGCAUGU.

Consider B27, for which the binding signal is 0.00458 KA relative to UGCAUGU. For the molecule B28, the binding signal is 0.00713 KA relative to UGCAUGU. With B29, the binding signal was 0.0114 KA relative to UGCAUGU. The figure for B30 is 0.0132 KA relative to UGCAUGU.

As to B31, the binding signal was 0.021 KA relative to UGCAUGU.
